Laboratory results published in paper PMC4336329 (PLoS ONE, 2015).
The whole screen tested about 310,000 compounds, of which about 2,200 (0.71%) showed an effect of 50% or more. The effect is printed as a negative number. This is one part of the list.

Target: human ether-à-go-go-related gene (hERG) potassium channel (human, UniProt Q12809)
Assay: primary screen, population patch clamp on CHO cells stably expressing hERG

Sequence of human ether-à-go-go-related gene (hERG) potassium channel (Q12809 whole entry, looked up): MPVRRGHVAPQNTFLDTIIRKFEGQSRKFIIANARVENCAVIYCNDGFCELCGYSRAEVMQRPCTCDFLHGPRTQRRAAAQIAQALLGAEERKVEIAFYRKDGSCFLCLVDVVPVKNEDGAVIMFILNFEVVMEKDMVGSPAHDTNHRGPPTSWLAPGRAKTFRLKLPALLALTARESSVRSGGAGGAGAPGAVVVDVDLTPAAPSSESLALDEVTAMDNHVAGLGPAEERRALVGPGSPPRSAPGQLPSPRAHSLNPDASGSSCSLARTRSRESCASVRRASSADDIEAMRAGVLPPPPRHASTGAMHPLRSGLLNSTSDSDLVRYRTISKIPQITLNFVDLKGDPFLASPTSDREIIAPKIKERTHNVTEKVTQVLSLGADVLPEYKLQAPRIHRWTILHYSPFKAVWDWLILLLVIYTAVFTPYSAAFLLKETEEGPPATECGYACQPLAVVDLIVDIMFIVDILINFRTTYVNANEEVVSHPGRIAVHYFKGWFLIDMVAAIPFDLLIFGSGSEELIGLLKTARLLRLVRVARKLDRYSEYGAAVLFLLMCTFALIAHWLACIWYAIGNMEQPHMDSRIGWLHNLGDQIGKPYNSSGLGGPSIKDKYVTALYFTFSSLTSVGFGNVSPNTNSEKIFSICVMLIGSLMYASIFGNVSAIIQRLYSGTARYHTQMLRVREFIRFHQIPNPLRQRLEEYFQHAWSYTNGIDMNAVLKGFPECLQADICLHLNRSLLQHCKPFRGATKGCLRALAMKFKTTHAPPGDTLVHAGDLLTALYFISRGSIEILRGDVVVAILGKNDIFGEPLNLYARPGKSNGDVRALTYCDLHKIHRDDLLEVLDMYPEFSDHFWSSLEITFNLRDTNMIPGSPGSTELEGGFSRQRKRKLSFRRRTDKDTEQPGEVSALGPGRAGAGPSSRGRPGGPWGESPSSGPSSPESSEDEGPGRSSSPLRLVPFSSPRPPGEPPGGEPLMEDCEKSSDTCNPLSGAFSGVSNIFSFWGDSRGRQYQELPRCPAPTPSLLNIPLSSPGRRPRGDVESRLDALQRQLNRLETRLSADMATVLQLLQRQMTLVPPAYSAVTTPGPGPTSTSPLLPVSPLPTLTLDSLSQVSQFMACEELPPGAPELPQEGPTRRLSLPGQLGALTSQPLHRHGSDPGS

| Structure (SMILES) | hERG current change (%, negative = inhibition) at 1uM [%] |
| --- | --- |
| CC(C)c1nc(SCC(=O)N2CCc3ccccc32)n[nH]1 | -3.3 |
| CCCc1ccc(C2=Nn3c(nnc3C(C)C)SC2)cc1 | 5.93 |
| Nc1ccccc1Nc1ccc([N+](=O)[O-])cc1[N+](=O)[O-] | -4.09 |
| Cc1c(Cl)c([N+](=O)[O-])nn1CCCC(=O)N1CCN(c2ccccc2)CC1 | -4.03 |
| Cc1nc(-c2ccc(S(=O)(=O)Nc3ccccc3C)cc2)co1 | 7.55 |
| Nc1nc2n(n1)C(c1cccs1)CC(c1ccccc1)N2 (stereo not shown) | 4.31 |
| Cc1c(-c2ccc(F)cc2)[n+](=O)c2c(n1[O-])CCCCC2 | 9.44 |
| Cc1ccc(C)c(NC(=O)Cn2nc(-c3ccccc3)nc2-c2ccccc2)c1 | 16.6 |
| CCCc1nnc(SCCSc2nnc(CCC)n2N)n1N | 5.6 |
| Cc1ccc(S(=O)(=O)N2CCC(=O)N(CCOCc3ccccc3C)CC2)cc1 | 10.5 |
| O=C(C1=C[C@H](c2csc3ccccc23)C[C@H](OCCCCO)O1)N1CCN(Cc2ccc3c(c2)OCO3)CC1 | -0.399 |
| Cc1cc(C)nc(NS(=O)(=O)c2ccc(N3C(=O)C4CC=C(Cl)CC4C3=O)cc2)n1 (stereo not shown) | 4.06 |
| CCOc1ccc(N2CC(C(=O)Nc3ccc(S(=O)(=O)N4CCOCC4)cc3)CC2=O)cc1 (stereo not shown) | 7.03 |
| O=C(CS(=O)(=O)c1cccc(Cl)c1)Nc1ccccc1Cl | 9.46 |
| Cc1c(Cl)cccc1N(Cc1ccc(C(=O)O)cc1)S(=O)(=O)c1ccccc1 | 3.4 |
| CCN1CCN(C(c2ccccc2F)c2nnnn2Cc2ccc3c(c2)OCO3)CC1.Cl (stereo not shown) | -10.2 |
| O=C(Nc1ccnn1C1CCN(Cc2cc3ccccc3[nH]2)CC1)C1CCOC1 (stereo not shown) | 7.3 |
| COC(CNC(=O)C1CCCCC1C(=O)O)OC (stereo not shown) | 7.74 |
| CCc1ccccc1OCC(=O)Nc1cc(S(=O)(=O)N(CC)CC)ccc1N1CCOCC1 | 9.24 |
| N#Cc1ccccc1Oc1ccc(S(=O)(=O)N2CCCCC2)cn1 | 15.2 |
| COc1cccc(/C=C/C(=O)OCC(=O)Nc2cc(S(=O)(=O)N3CCOCC3)ccc2C)c1 | 18.5 |
| COc1ccc(/C=C2\N=C(C(C)(C)C)OC2=O)c(OC)c1 | 14.6 |

| Structure (SMILES) | hERG current change (%, negative = inhibition) at 1uM [%] |
| --- | --- |
| Cc1c(C(=O)NCCSCc2ccc(Cl)cc2Cl)cccc1[N+](=O)[O-] | 17 |
| Cc1ccsc1C(=O)NNC(=O)CCN1CCN(c2ccccc2)CC1 | 0.276 |
| CCC1(CC)NC(=O)NC1=O | 11.1 |
| CCCOc1ccc(Cl)cc1/C=C1/C(=O)ON=C1C | 10.1 |
| CN1C(=O)N(C)C2(c3ccccc3)Nn3c(s/c(=C/c4ccccc4F)c3=O)=NC12c1ccccc1 (stereo not shown) | 9.18 |
| COc1ccc(Cl)cc1C(=O)NNC(=O)COC(=O)CC(NC(C)=O)c1ccccc1 (stereo not shown) | 20.1 |
| Cc1ccc([N+](=O)[O-])cc1NC(=O)C1CCN(S(C)(=O)=O)CC1 | 19.2 |
| CCCCN(C)C(=O)c1cc2cc3ccc(OC)cc3nc2o1 | 8.31 |
| COc1ccccc1CNC(=O)CCCc1cn(C)c2ccccc12 | 5.66 |
| Cc1ccc(S(=O)(=O)NCc2n[nH]c(=S)n2C)cc1 | 17 |
| O=C(NC1CCSc2ccccc21)c1ccccc1F (stereo not shown) | 6.84 |
| Cl.Fc1ccc(-c2ccc(CNCc3ccccn3)o2)cc1 | 11.5 |
| COc1ccc(C)cc1NC(=O)C1CCN(S(C)(=O)=O)CC1 | 11.2 |
| Cc1cnc(C(=O)OC(C)C(=O)Nc2ccc(Cl)cn2)cn1 (stereo not shown) | 12.2 |
| Cc1ccc(SCc2[nH]nc3c2C2(C(=O)N(C)c4ccccc42)C(C#N)=C(N)O3)cc1 (stereo not shown) | 2.51 |
| C/C(=N\NC(=O)c1nnn(-c2nonc2N)c1CN(C)c1ccccc1)c1cccnc1 | 14.3 |
| CCCCCCn1c(O)c(C=NCCN2CCOCC2)c(=O)[nH]c1=O | 7.51 |
| CS(=O)(=O)N(Cc1nnc(-c2cccs2)o1)c1ccc(Cl)cc1F | 1.29 |
| CC(N=Cc1ccccc1O)c1ccccc1 (stereo not shown) | 10.2 |
| Cc1noc(C)c1CC(=O)Nc1ccc2c(c1)OCO2 | 1.31 |
| O=C(NCc1ccncc1)C(=O)NCc1ccncc1 | 9.27 |
| COc1ccc(C2NS(=O)(=O)N=C2N)cc1 (stereo not shown) | 10.3 |

| Structure (SMILES) | hERG current change (%, negative = inhibition) at 1uM [%] |
| --- | --- |
| CCC(C)NC(=O)Cn1cnc2sc(C)cc2c1=O (stereo not shown) | 1.12 |
| COc1ccc(CN(C)C(=O)c2cc(S(=O)(=O)NCc3ccccc3)ccc2C)c(OC)c1 | 5.08 |
| Cc1noc(/C=C/N(C)C)c1S(=O)(=O)N(C)CC(=O)NC1CCCCC1 | 10.2 |
| CCOC(=O)N1CCN(C(=O)c2ccccc2NS(=O)(=O)c2ccc(C)cc2)CC1 | 5.59 |
| COc1ccc(NC(=O)O/N=C2/CCCc3ccc(OC)cc32)cc1 | 8.82 |
| CC(C)NC(=O)c1ccc(CS(=O)(=O)c2ccc(Br)cc2)o1 | 1.46 |
| NS(=O)(=O)c1ccc(CNC(=O)Cc2ccccc2F)cc1 | 5.27 |
| COc1cc(OC)c(NC(=O)C(=O)CC(=O)c2ccc(C)cc2C)cc1Cl | 15.9 |
| Cc1ccc(C)c(NC(=O)C2CC(O)CN2C(=O)Oc2ccccc2)c1 (stereo not shown) | 11.8 |
| Cc1ccc(CN2C(=O)N/C(=C\c3ccc(-c4ccc(C(=O)O)cc4C)o3)C2=O)cc1 | 2.71 |
| COc1ccc(C2CC(=O)C(C=NCCCO)=C(O)C2)cc1 (stereo not shown) | 11.6 |
| Cc1cccc(-n2c(Cc3cc(=O)[nH]c(=O)[nH]3)nnc2SCC(=O)Nc2cccc(C(F)(F)F)c2)c1 | -0.582 |
| CCOCc1cc(CN2CCC(CCC(=O)NC3CC3)CC2)ccc1OC | -14.7 |
| Cc1cccc(Nc2c(-c3ccc(N4CCOCC4)cc3)nc3ncccn23)c1 | 11.4 |
| CCCN(C(=O)c1cnccn1)c1c(N)n(Cc2ccccc2)c(=O)[nH]c1=O | 5.66 |
| Cc1ccc(/C=N/Nc2ccc(Cl)c(C(=O)O)c2)s1 | 8.18 |
| Cc1cnn(-c2cc(N/N=C/c3ccccc3F)ncn2)c1 | 8.07 |
| C=CCOC(=O)C1C(=O)CC(C)(O)C(C(=O)OCC=C)C1c1ccc(N(C)C)cc1 (stereo not shown) | 15 |
| Cc1ccccc1-n1c(SCC(=O)c2cc(C)n(C)c2C)nnc1-c1cccnc1 | -12.5 |
| CCN(CC)S(=O)(=O)c1ccc(C)c(NC(=O)Cn2c(=O)cnc3ccccc32)c1 | 15.8 |
| COc1ccc(NC2CC(=O)N(C)C2=O)cc1 (stereo not shown) | 0.171 |
| COc1ccc(-n2c(C)cc(C(=O)Cn3nc(C(=O)O)c4ccccc4c3=O)c2C)cc1 | 6.01 |

| Structure (SMILES) | hERG current change (%, negative = inhibition) at 1uM [%] |
| --- | --- |
| COc1cccc(/C=C2\SC(=S)N(NC(=O)c3ccncc3)C2=O)c1 | 8.15 |
| O=C(O)CCCNS(=O)(=O)Cc1ccccc1 | 8.66 |
| CC1CCN(C(=O)c2[nH]cnc2C(=O)NC2CCN(C(=O)OC(C)(C)C)CC2)CC1 | 14.2 |
| Cc1cc(Cl)ccc1NC(=S)NCCCO | 12.4 |
| Cc1cccc(Cn2nc(C(C)(C)C)cc2C(=O)N2CCOCC2)c1 | -5.8 |
| Br.CCn1c(=N)n(CC(=O)c2cccc([N+](=O)[O-])c2)c2ccccc21 | 7.53 |
| CCC(=O)Nc1ccc(NC(=O)CSc2nnnn2-c2ccc3c(c2)OCCO3)cc1 | 0.475 |
| COC(=O)[C@@]1(Cc2ccc(F)cc2)[C@H]2c3cc(C(=O)N(C)C)n(CCSCCO)c3C[C@H]2CN1C(=O)c1ccccc1 | -0.369 |
| O=C(CC(=O)c1ccccc1)Nc1ccc(Cl)cc1 | 12.8 |
| Cc1cc(C)n(CC(=O)n2nc(C)cc2C)n1 | 10.5 |
| CCOC(=O)c1c(NC(=O)c2nn(CC)cc2Br)sc(C)c1C | 15 |
| CC1CN(C(=O)CN(C)S(=O)(=O)c2ccc3ccccc3c2)CC(C)O1 (stereo not shown) | 7.65 |
| O=C(Nc1ccc2oc(-c3ccncc3)nc2c1)c1ccc(Br)o1 | 9.84 |
| CCOC(=O)c1c(-c2ccccc2)csc1N1C(=O)Nc2ccccc2N1O | 11.4 |
| COC(C)c1oc2c(C)c3oc(=O)cc(C)c3cc2c1C (stereo not shown) | 4.36 |
| Cc1[nH]n(S(=O)(=O)c2ccccc2)c(=O)c1N=Nc1cccc(Cl)c1 | 13.6 |
| O=C(Nc1ccccc1Cl)c1ccccc1Cl | -6.03 |
| Cc1cnc(C(=O)OCC(=O)NC2CCCCCC2)cn1 | 18.8 |
| COc1ccc(C)cc1NC(=O)C1CCN(S(=O)(=O)c2cccs2)CC1 | 15.6 |
| CC12CCC(C(=O)O)(C/C1=N\O)C2(C)C (stereo not shown) | -2.26 |
| Cc1ccccc1-c1nc(CN2CCC(C(=O)NC3CCN(Cc4ccccc4)CC3)CC2)c(C)o1 | 0.832 |
| Cn1c(OCc2cccnc2)nc2c1c(=O)n(Cc1ccc(Br)cc1)c(=O)n2C | -1.38 |
